EPA's CvTdb concentration-time database
Further values from the same series stand in other lists.

Experiments:
Assay in all cases: concentration in plasma after dosing
[1] = test system: Rat; details: dosed: Perfluorodecanoic acid, 2 mg/kg, oral, Female, Harlan Sprague Dawley
[2] = test system: Rat; details: dosed: Perfluorodecanoic acid, 10 mg/kg, oral, Male, Harlan Sprague Dawley
[3] = test system: Rat; details: dosed: Perfluorodecanoic acid, 20 mg/kg, oral, Female, Harlan Sprague Dawley
[4] = test system: Rat; details: 24 h; dosed: Perfluorodecanoic acid; 10 mg/kg; oral; Male; Harlan Sprague Dawley
[5] = test system: Rat; details: dosed: Perfluorodecanoic acid, 10 mg/kg, oral, Female, Harlan Sprague Dawley
[6] = test system: Rat; details: dosed: Perfluorodecanoic acid, 20 mg/kg, oral, Male, Harlan Sprague Dawley
[7] = test system: Rat; details: dosed: Perfluorooctane Sulfonate, 2 mg/kg, oral, Female, Harlan Sprague Dawley
[8] = test system: Rat; details: 24 h; dosed: Perfluorooctane Sulfonate; 2 mg/kg; oral; Female; Harlan Sprague Dawley
[9] = test system: Rat; details: dosed: Perfluorooctane Sulfonate, 20 mg/kg, oral, Male, Harlan Sprague Dawley
[10] = test system: Rat; details: 3360 h; dosed: Perfluorooctane Sulfonate; 2 mg/kg; oral; Female; Harlan Sprague Dawley
[11] = test system: Rat; details: 864 h; dosed: Perfluorooctane Sulfonate; 20 mg/kg; oral; Female; F344
[12] = test system: Rat; details: 864 h; dosed: Perfluorooctane Sulfonate; 2 mg/kg; oral; Female; Harlan Sprague Dawley
[13] = test system: Rat; details: 1848 h; dosed: Perfluorooctane Sulfonate; 20 mg/kg; oral; Male; Harlan Sprague Dawley
[14] = test system: Rat; details: dosed: Perfluorooctane Sulfonate, 2 mg/kg, oral, Female, Harlan Sprague Dawley; remark: listed apart in the source
[15] = test system: Rat; details: 6 h; dosed: Perfluorooctane Sulfonate; 20 mg/kg; oral; Male; Harlan Sprague Dawley
[16] = test system: Rat; details: dosed: Fluorotelomer alcohol 8+2, 12 mg/kg, oral, Male, Harlan Sprague Dawley
[17] = test system: Rat; details: 1200 h; dosed: Perfluorooctanoic acid; 12 mg/kg; oral; Male; Harlan Sprague Dawley
[18] = test system: Rat; details: 48 h; dosed: Fluorotelomer alcohol 8+2; 160 mg/kg; oral; Female; Harlan Sprague Dawley
[19] = test system: Rat; details: dosed: Perfluorooctanoic acid, 40 mg/kg, oral, Male, Harlan Sprague Dawley
[20] = test system: Rat; details: 12 h; dosed: Fluorotelomer alcohol 8+2; 24 mg/kg; oral; Male; Harlan Sprague Dawley
[21] = test system: Rat; details: dosed: Fluorotelomer alcohol 8+2, 160 mg/kg, oral, Female, Harlan Sprague Dawley
[22] = test system: Rat; details: dosed: Perfluorooctanoic acid, 320 mg/kg, oral, Female, Harlan Sprague Dawley
[23] = test system: Rat; details: dosed: Perfluorooctanoic acid, 40 mg/kg, iv, Male, F344
[24] = test system: Rat; details: dosed: Fluorotelomer alcohol 8+2, 160 mg/kg, oral, Female, Harlan Sprague Dawley; remark: listed apart in the source
[25] = test system: Rat; details: dosed: Fluorotelomer alcohol 8+2, 160 mg/kg, oral, Female, Harlan Sprague Dawley; remark: listed apart in the source
[26] = test system: Rat; details: 12 h; dosed: Perfluorooctanoic acid; 12 mg/kg; oral; Male; Harlan Sprague Dawley
[27] = test system: Rat; details: 3 h; dosed: Fluorotelomer alcohol 8+2; 24 mg/kg; oral; Male; Harlan Sprague Dawley
[28] = test system: Rat; details: dosed: Perfluorooctanoic acid, 320 mg/kg, oral, Female, Harlan Sprague Dawley; remark: listed apart in the source
[29] = test system: Rat; details: dosed: Perfluorooctanoic acid, 48 mg/kg, oral, Male, Harlan Sprague Dawley
[30] = test system: Rat; details: dosed: Fluorotelomer alcohol 8+2, 24 mg/kg, oral, Male, Harlan Sprague Dawley
[31] = test system: Rat; details: 48 h; dosed: Perfluorooctanoic acid; 80 mg/kg; oral; Female; Harlan Sprague Dawley
[32] = test system: Rat; details: dosed: Perfluorooctanoic acid, 6 mg/kg, oral, Male, Harlan Sprague Dawley
[33] = test system: Rat; details: 1200 h; dosed: Perfluorooctanoic acid; 12 mg/kg; oral; Male; Harlan Sprague Dawley; remark: listed apart in the source

O=C(O)C(F)(F)C(F)(F)C(F)(F)C(F)(F)C(F)(F)C(F)(F)C(F)(F)C(F)(F)C(F)(F)F [Perfluorodecanoic acid]
Details | concentration in plasma [ng/mL]
[1], 6 h | 8460
[1], 864 h | 2860
[2], 0.5 h | 5280
[2], 192 h | 25700
[2], 1848 h | 6300
[3], 1 h | 57200
[3], 192 h | 120000
[3], 2520 h | 4540
[5], 12 h | 51400
[5], 864 h | 14200
[6], 0.5 h | 22200
[6], 24 h | 73200
[6], 1848 h | 11300

Details | concentration in plasma [ng/mL]
[4] | 39400

O=S(=O)([O-])C(F)(F)C(F)(F)C(F)(F)C(F)(F)C(F)(F)C(F)(F)C(F)(F)C(F)(F)F [Perfluorooctane Sulfonate]
concentration in plasma [ng/mL]
Details | 1 h | 5 min | 192 h | 528 h | 1200 h | 2520 h
[7] | – | 161 | 4840 | – | 2980 | –
[9] | 30300 | – | – | 33900 | – | 7320
[14] | 3330 | – | – | 2240 | – | 373

Details | concentration in plasma [ng/mL]
[8] | 7880
[10] | 728
[11] | 33800
[12] | 2740
[13] | 13300
[15] | 70000

O=C(O)C(F)(F)C(F)(F)C(F)(F)C(F)(F)C(F)(F)C(F)(F)C(F)(F)F [Perfluorooctanoic acid]
Details | concentration in plasma [ng/mL]
[16], 1 h | 375
[16], 24 h | 812
[19], 6 h | 134000
[19], 48 h | 166
[21], 1 h | 1830
[21], 24 h | 603
[22], 1 h | 576000
[22], 12 h | 213000
[23], 3 h | 98200
[23], 48 h | 43.8
[24], 1 h | 2210
[24], 24 h | 3040
[25], 0.75 h | 1140
[25], 12 h | 3700
[28], 0.25 h | 336000
[28], 9 h | 581000
[28], 96 h | 6670
[29], 3 h | 196000
[29], 24 h | 259000
[29], 1200 h | 2880
[30], 0.25 h | 17.8
[30], 24 h | 1110
[32], 3 h | 35000
[32], 24 h | 38800
[32], 1200 h | 3780

Details | concentration in plasma [ng/mL]
[17] | 2990
[18] | 78.2
[20] | 898
[26] | 83000
[27] | 698
[31] | 284
[33] | 1640
